Reference: PubChem BioAssay AID686970 (National Center for Advancing Translational Sciences (NCATS), 2013)
Out of some 360,000 compounds screened, about 6,000 (1.7%) were called active. Inconclusive results, whose numbers are uncertain, are shown with a selection of clear calls. The call rests on the fitted dose curve; in most records, active means well fitted cell-killing curve with a large enough effect; inconclusive means small, poorly fitted or top-dose-only effect, or effect the other way; inactive means flat fitted curve, though single readings scatter. No potency is given beside an inconclusive call; the fits are too rough.
Potency means the concentration at half of the fitted maximal effect; tags describe the fitted curve by direction and shape.

Assay: qHTS for induction of synthetic lethality in tumor cells producing 2HG: qHTS for the HT-1080-NT fibrosarcoma cell line;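 further: NT is the 2HG producing partner of a matched IDH1 knockdown line; nearly all actives have a fitted effect of over 55% in size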;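 on activity, negative = less viability: 0% = DMSO-treated cells and -100% = media-only wells without cells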
Conditions: HT-1080-NT fibrosarcoma viability, CellTiter-Glo ATP luminescence, 48 h; activity, negative = less viability: at 46.1 µM (top of the series) unless noted
Outline: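 750 cells/well, RPMI + 5% FBS; 2 h settle, compound pin-transfer, 48 h at 37 degrees C. CellTiter-Glo 10 min RT, luminescence. Normalized to DMSO and media-only wells.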
With CCOc1cc(C)c(Cl)cc1S(=O)(=O)NCc1ccc2c(c1)OCO2 the Potency was inconclusive [cytotoxic, partial curve].
With Cc1cc(C)c2ccc(N)nc2c1O the Potency was active: 10.3 µM.
In the case of Cc1cc2nnc(SCC(=O)N3CCCCCC3)n2c(N)n1, the Potency is reported as inconclusive [rising, single point].
In the case of Cc1onc(-c2ccccc2)c1C(=O)NNC(=S)NC(=O)c1ccc(Br)cc1, the Potency is reported as inconclusive [cytotoxic, single point].
With CN(C)CCN(C(=O)/C=C/c1cccs1)c1nc2ccc(F)cc2s1 the Potency was inconclusive [cytotoxic, single point].
In the case of CCCCC(=O)NC(=S)NNC(=O)CCc1ccccc1, the “activity, negative = less viability” value is reported as inactive: 2.98%.
For Cc1ccc(C)c(N2CCN(C(=O)Cc3cn(C)c4ccccc34)CC2)c1, the Potency was inconclusive [cytotoxic, single point].
For Cc1ccc(-c2csc(N3CCN(c4cc5c(cc4Cl)nc(-c4ccncc4)n5CCN4CCCCC4)CC3)n2)cc1, the activity, negative = less viability was inconclusive: -24.3% [cytotoxic].
With FC(F)(F)Oc1ccc(NC(=S)NCc2ccccc2)cc1 the Potency was inconclusive [cytotoxic, single point].
In the case of CCOc1ccc2[nH]c(C(=O)N/N=C/c3ccc(OC)cc3)cc2c1, the Potency is reported as active: 0.92 µM.
With CCNc1ccc2noc3c2c1C(=O)c1ccccc1-3 the Potency was inconclusive [cytotoxic, single point].
For O=C(CN1C(=O)COc2ccc(Cl)cc21)Nc1ccccn1, the “activity, negative = less viability” value was inactive: 0.481%.
For CCCCNC(=S)N1CCN(C(c2ccccc2)c2ccccc2)CC1, the Potency was inconclusive [cytotoxic, single point].
In the case of O=C(CCNC(=O)C1CCN(S(=O)(=O)c2ccccc2)CC1)Nc1cccc(C(F)(F)F)c1, the “activity, negative = less viability” value is reported as inactive: -4.56%.
For COc1cc(C2C(C#N)=C(C)NC3=C2C(=O)c2ccccc23)cc(OC)c1OC (stereo unspecified), the Potency was active: 0.891 µM.
In the case of O=[N+]([O-])c1ccc(S(=O)(=O)N2CCN(c3ccccn3)CC2)cc1, the “activity, negative = less viability” value is reported as inactive: 2.24%.
With COc1cc(C(=O)NC(=S)Nc2ccccc2N2CCCC2)cc(OC)c1OC the Potency was inconclusive [cytotoxic, single point].
With COc1ccc(-n2sc3ccccc3c2=O)cc1 the Potency was inconclusive [cytotoxic, single point].
In the case of O=C(O)c1ccc[nH]c1=S, the “activity, negative = less viability” value is reported as inactive: 24.2%.
For C[C@@]12C(=O)Nc3ccc(Br)cc3C(=O)N1[C@H]1c3cc(Br)ccc3OC[C@@H]1[C@@H]2c1ccccc1, the Potency was inconclusive [cytotoxic, single point].
With CC1CCCCN1C(=O)CN1CCN(S(=O)(=O)c2ccc(Br)cc2Cl)CC1 (stereo unspecified) the “activity, negative = less viability” value was inactive: -7.09%.
